Results: the supplement of paper PMC12230231
± gives the standard deviation of the averaged measurements. Restriction of a single-cycle SIVsab GFP reporter by TRIM5α v1-loop variants in CRFK cells. Human variants: read share among cells still uninfected after two challenges over input, higher = gained restriction. Rhesus variants: share among infected cells over input, higher = lost restriction. Reporter dose not given per row. No active / inactive call per row; the paper calls a change when both replicates lie above its controls (mean + 2 SD of stop or wild-type variants, or the top frameshift score). Residues outside the varied loop are taken from Swiss-Prot. The paper reads the human single-substitution scores as noise; they and the rhesus combinations repeat poorly (rank correlation 0.3 to 0.4), indel scores repeat only for the top variants, rhesus substitutions well (0.9).

The sequences below were run on SIVsab (simian immunodeficiency virus of sabaeus monkeys), single-cycle GFP reporter, in CRFK cells (assay: enrichment among uninfected cells over input (fold); higher = stronger restriction). Conditions: library: human / rhesus combinations.
Description: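 Pools of CRFK cells expressing variants of the TRIM5α v1 loop were challenged with the single-cycle reporter, sorted by GFP and sequenced; mean of two replicates.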

**Q.** With “MASGILVNVKEEVTCPICLELLTQPLSLDCGHSFCQACLTANHKKSMLDKGESSCPVCRISYQPENIRPNRHVANIVEKLREVKLSPEGQKVDHCARHGEKLLLFCQEDGKVICWLCERSQEHRGHHTFLTEEVAREYQVKLQAALEMLRQKQQEAEELEADIREEKASWKTQIQYDKTNVLADFEQLRDILDWEESNELQNLEKEEEDILKSLTNSETEMVQQTQSLRELISDLEHRLQGSVMELLQGVDGVIKRTENVTLKKPETFPKNQRRVFRAPDLKGMLEVFRELTDVRRYWVDVTVAPNNISCAVISEDKRQVSSPKPQIIYGAPGTRFTFPTFTNFNYCTGILGSQSITSGKHYWEVDVSKKTAWILGVCAGFQPDAMCNIEKNENYQPKYGYWVIGLEEGVKCSAFQDSSFHTPSVPFIVPLSVIICPDRVGVFLDYEACTVSFFNITNHGFLIYKFSHCSFSQPVFPYLNPRKCGVPMTLCSPSS [human TRIM5α, 330-340 = GAPGTRFTFPTFT]” as the sequence, how does the enrichment read?
**A.** 0.124 ± 0.06

**Q.** With “MASGILVNVKEEVTCPICLELLTQPLSLDCGHSFCQACLTANHKKSMLDKGESSCPVCRISYQPENIRPNRHVANIVEKLREVKLSPEGQKVDHCARHGEKLLLFCQEDGKVICWLCERSQEHRGHHTFLTEEVAREYQVKLQAALEMLRQKQQEAEELEADIREEKASWKTQIQYDKTNVLADFEQLRDILDWEESNELQNLEKEEEDILKSLTNSETEMVQQTQSLRELISDLEHRLQGSVMELLQGVDGVIKRTENVTLKKPETFPKNQRRVFRAPDLKGMLEVFRELTDVRRYWVDVTVAPNNISCAVISEDKRQVSSPKPQIIYGAPGTRFTFPTLVNFNYCTGILGSQSITSGKHYWEVDVSKKTAWILGVCAGFQPDAMCNIEKNENYQPKYGYWVIGLEEGVKCSAFQDSSFHTPSVPFIVPLSVIICPDRVGVFLDYEACTVSFFNITNHGFLIYKFSHCSFSQPVFPYLNPRKCGVPMTLCSPSS [human TRIM5α, 330-340 = GAPGTRFTFPTLV]” as the sequence, how does the enrichment read?
**A.** 0.188 ± 0.014

**Q.** Which enrichment does the source give for “MASGILVNVKEEVTCPICLELLTQPLSLDCGHSFCQACLTANHKKSMLDKGESSCPVCRISYQPENIRPNRHVANIVEKLREVKLSPEGQKVDHCARHGEKLLLFCQEDGKVICWLCERSQEHRGHHTFLTEEVAREYQVKLQAALEMLRQKQQEAEELEADIREEKASWKTQIQYDKTNVLADFEQLRDILDWEESNELQNLEKEEEDILKSLTNSETEMVQQTQSLRELISDLEHRLQGSVMELLQGVDGVIKRTENVTLKKPETFPKNQRRVFRAPDLKGMLEVFRELTDVRRYWVDVTVAPNNISCAVISEDKRQVSSPKPQIIYQAPGTRFTFPTFTNFNYCTGILGSQSITSGKHYWEVDVSKKTAWILGVCAGFQPDAMCNIEKNENYQPKYGYWVIGLEEGVKCSAFQDSSFHTPSVPFIVPLSVIICPDRVGVFLDYEACTVSFFNITNHGFLIYKFSHCSFSQPVFPYLNPRKCGVPMTLCSPSS [human TRIM5α, 330-340 = QAPGTRFTFPTFT]” here?
**A.** 1.79 ± 0.85

**Q.** How did the enrichment turn out when “MASGILVNVKEEVTCPICLELLTQPLSLDCGHSFCQACLTANHKKSMLDKGESSCPVCRISYQPENIRPNRHVANIVEKLREVKLSPEGQKVDHCARHGEKLLLFCQEDGKVICWLCERSQEHRGHHTFLTEEVAREYQVKLQAALEMLRQKQQEAEELEADIREEKASWKTQIQYDKTNVLADFEQLRDILDWEESNELQNLEKEEEDILKSLTNSETEMVQQTQSLRELISDLEHRLQGSVMELLQGVDGVIKRTENVTLKKPETFPKNQRRVFRAPDLKGMLEVFRELTDVRRYWVDVTVAPNNISCAVISEDKRQVSSPKPQIIYGAPGTLFQSFTNFNYCTGILGSQSITSGKHYWEVDVSKKTAWILGVCAGFQPDAMCNIEKNENYQPKYGYWVIGLEEGVKCSAFQDSSFHTPSVPFIVPLSVIICPDRVGVFLDYEACTVSFFNITNHGFLIYKFSHCSFSQPVFPYLNPRKCGVPMTLCSPSS [human TRIM5α, 330-340 = GAPGTLFQSFT]” was run?
**A.** 0.00118 ± 0.00028

**Q.** Which enrichment does the source give for “MASGILVNVKEEVTCPICLELLTQPLSLDCGHSFCQACLTANHKKSMLDKGESSCPVCRISYQPENIRPNRHVANIVEKLREVKLSPEGQKVDHCARHGEKLLLFCQEDGKVICWLCERSQEHRGHHTFLTEEVAREYQVKLQAALEMLRQKQQEAEELEADIREEKASWKTQIQYDKTNVLADFEQLRDILDWEESNELQNLEKEEEDILKSLTNSETEMVQQTQSLRELISDLEHRLQGSVMELLQGVDGVIKRTENVTLKKPETFPKNQRRVFRAPDLKGMLEVFRELTDVRRYWVDVTVAPNNISCAVISEDKRQVSSPKPQIIYGAPGTRYPSFTNFNYCTGILGSQSITSGKHYWEVDVSKKTAWILGVCAGFQPDAMCNIEKNENYQPKYGYWVIGLEEGVKCSAFQDSSFHTPSVPFIVPLSVIICPDRVGVFLDYEACTVSFFNITNHGFLIYKFSHCSFSQPVFPYLNPRKCGVPMTLCSPSS [human TRIM5α, 330-340 = GAPGTRYPSFT]” here?
**A.** 0.00242 ± 0.0006

**Q.** “MASGILVNVKEEVTCPICLELLTQPLSLDCGHSFCQACLTANHKKSMLDKGESSCPVCRISYQPENIRPNRHVANIVEKLREVKLSPEGQKVDHCARHGEKLLLFCQEDGKVICWLCERSQEHRGHHTFLTEEVAREYQVKLQAALEMLRQKQQEAEELEADIREEKASWKTQIQYDKTNVLADFEQLRDILDWEESNELQNLEKEEEDILKSLTNSETEMVQQTQSLRELISDLEHRLQGSVMELLQGVDGVIKRTENVTLKKPETFPKNQRRVFRAPDLKGMLEVFRELTDVRRYWVDVTVAPNNISCAVISEDKRQVSSPKPQIIYQAPGTRYQSFVNFNYCTGILGSQSITSGKHYWEVDVSKKTAWILGVCAGFQPDAMCNIEKNENYQPKYGYWVIGLEEGVKCSAFQDSSFHTPSVPFIVPLSVIICPDRVGVFLDYEACTVSFFNITNHGFLIYKFSHCSFSQPVFPYLNPRKCGVPMTLCSPSS [human TRIM5α, 330-340 = QAPGTRYQSFV]” was tested. Which enrichment did it give?
**A.** 0.258 ± 0.35

**Q.** “MASGILVNVKEEVTCPICLELLTQPLSLDCGHSFCQACLTANHKKSMLDKGESSCPVCRISYQPENIRPNRHVANIVEKLREVKLSPEGQKVDHCARHGEKLLLFCQEDGKVICWLCERSQEHRGHHTFLTEEVAREYQVKLQAALEMLRQKQQEAEELEADIREEKASWKTQIQYDKTNVLADFEQLRDILDWEESNELQNLEKEEEDILKSLTNSETEMVQQTQSLRELISDLEHRLQGSVMELLQGVDGVIKRTENVTLKKPETFPKNQRRVFRAPDLKGMLEVFRELTDVRRYWVDVTVAPNNISCAVISEDKRQVSSPKPQIIYGAPGTLFTFPSFVNFNYCTGILGSQSITSGKHYWEVDVSKKTAWILGVCAGFQPDAMCNIEKNENYQPKYGYWVIGLEEGVKCSAFQDSSFHTPSVPFIVPLSVIICPDRVGVFLDYEACTVSFFNITNHGFLIYKFSHCSFSQPVFPYLNPRKCGVPMTLCSPSS [human TRIM5α, 330-340 = GAPGTLFTFPSFV]” was tested. Which enrichment did it give?
**A.** 13.8 ± 1.8

Same assay, conditions: library: insertions and deletions

**Q.** “MASGILVNVKEEVTCPICLELLTQPLSLDCGHSFCQACLTANHKKSMLDKGESSCPVCRISYQPENIRPNRHVANIVEKLREVKLSPEGQKVDHCARHGEKLLLFCQEDGKVICWLCERSQEHRGHHTFLTEEVAREYQVKLQAALEMLRQKQQEAEELEADIREEKASWKTQIQYDKTNVLADFEQLRDILDWEESNELQNLEKEEEDILKSLTNSETEMVQQTQSLRELISDLEHRLQGSVMELLQGVDGVIKRTENVTLKKPETFPKNQRRVFRAPDLKGMLEVFRELTDVRRYWVDVTVAPNNISCAVISEDKRQVSSPKPQIIYGARGTRGTRYQTFVNFNYCTGILGSQSITSGKHYWEVDVSKKTAWILGVCAGFQPDAMCNIEKNENYQPKYGYWVIGLEEGVKCSAFQDSSFHTPSVPFIVPLSVIICPDRVGVFLDYEACTVSFFNITNHGFLIYKFSHCSFSQPVFPYLNPRKCGVPMTLCSPSS [human TRIM5α, 3-codon duplication at 333]” was tested. Which enrichment did it give?
**A.** 0.56 ± 0.037
